The source gives no read counts; variants with many changes may rest on few reads.
B1: LINE1-mini (parent)
chain: GGCAGAGCUCAACACAGCGUGGCAAAGUGGCUGUGGCUAGACUGCC

Variants of: B1
Assay: self-cleavage, relative activity (ratio to wild type); higher = more cleavage; in vitro, sequencing; the parent is a self-cleaving ribozyme

| Variant | self-cleavage |
| --- | --- |
| UGCAGAGCUCAACAGAGCGUGGCAAAGGGGCUGUAGCUAGACUGCC | 0.01 |
| UGCAGAGCUCAACACAGUCUGGCAAAGUGGCUGUGGCUAGACUGCC | 0.66 |
| UGCAGAGCUCAAGACAGCGUGGCAAAGUGGCUGUGGCUAGGCUGCC | 0.3 |
| UGCAGAGCUCAACACAGGUUGGCAAAGUGGCUAUGGUUAGACUGCC | 0.02 |
| UGCAGAGCUCAACAGAGCGUGGCAAUGUGGCUGUGGCUAGACUGCC | 0.02 |
| UGCAGAGCUCAACACAGCGUGGCAAAGUGGAUGUUGCUAGUCUGCC | 0.04 |
| UGCAGAGCUCAACACAGAGUGGCAAAGUGGCUGUGGAUAGACUGCC | 0.02 |
| UGCAGAGCUCAACACAGAGUGGCAAAGUGGCUGUGCCUAGACUGCC | 0.02 |
| UGCAGAGCUCAACACAGCGUGGCAAAGUGGAUGUGGCUAGAUUGCC | 0.01 |
| UGCAGAGCUCAACAAAGCGCCGCAAAGUGGCUGUGGCUAGACUGCC | 0.02 |
| UGCAGAGCUCAACACAGCGUGGAAAAGUGGCUGUUUCUAGACUGCG | 0.06 |
| UGCAGAGCUCAACACAGGGUGGCAAAGUGGCUGUGGCUAGACUGGC | 0.16 |
| UGCAGAGCUCAACACAGCGUGGCAAAGUGGUAGUGGCUAGACUGCC | 0.06 |
| UGCAGAGCUCAAGACAGCGUGGAAAAGUGGAUGUGGCUAGACUGCC | 0.15 |
| UGCAGAGCUCAAAAUAUCGUGGCAAAGUGGCUGUGGAUAGACUGCC | 0.07 |
| UGCAGAGCUCAACACAGUGAGGCAAAGUGGCUGUGGCUAGACUGCC | 0.29 |
| UACAGAUCUCAACACAGCGUGGCAAAGUGGCUGUGGCUAGACUCCC | 0.09 |
| UACAGAGCUCAAGACAGCGUAGCAAAGUGGCUGUUGCUAGACUGCC | 0.2 |
| UGCAGAGCUCAACACAGUGUGGCAAAGUGGCAGUGGCUAGACUGCC | 0.01 |
| UGCAGAGCUCAACACAGAGUCGCAAAGUGGCUGUGGCCAGAUUGCU | 0 |
| UGCAGAGCUCAACAGAGCGUGGCAAAGUGGCUGUAGCUAGACUGCC | 0.01 |
| UGCAGAGCUCAAUACAGCGUGGCAGAGUGACUGUGGCUAAACUGCC | 0.06 |
| UGCAGAGCUCAACACAGCGUGGAAAAGUCGCUGUGGCUAGACUGCC | 0.08 |

| Variant | self-cleavage |
| --- | --- |
| UGCAGAGCUCAACACAGAGACGCAAAGUGGCUGUGGCUGGACUGCC | 0.03 |
| UACAGAGCUCAACACAGCGUGGCAAAGUGGCUGUGGCUAGACUGGC | 0.27 |
| UGCAGAGCUCAACAAAGCGUGGCAAAGUGGCUGUGGCUAGAGUGCC | 0.07 |
| UGCAGAGCUCAACACAGCGUGGAAAAGUGGCUGUAGCUAGACUGCC | 0.07 |
| UGCAGAGCUCAAUACAGCGUGGCAAAGUGGCUGUGGCUAGAGUGCC | 0.15 |
| UACGGAGCUCAACACAGCGUGGCGAAGUGGCUGUUGCUAGACUGCC | 0.17 |
| UGCAGAGCUCAACAGAGCGUGGCAAAGUUGCUGUGGCUAGACUGCG | 0.08 |
| UGCAGAGCUCAAUACAGCGUGGCCACGUGGCUGUGGCUAGACUGCC | 0.02 |
| UGCAGAGCUCAACAUAGCGUGGCAAACCAGCUGUGGCUAGACUGCC | 0.09 |
| UACAGAGCUCUCCACAGCGUGGCAAAGUGGGUGUGGCUAGACUGCC | 0 |
| UGCAGAGCUCAACAAAGCGUGGCAAAGUGGCCGUCGCUAGACUGCC | 0.01 |
| UACAGAGCUCAACACAGCGUGGCAACGUGGCUGUGGUUAGACUGCG | 0.01 |
| UGCAGAGCUCAACACAGCGUGGAAAAGUGUCUGUGGCUCGACUUCC | 0.07 |
| UGCAGAGCUCAACAAAGCGUGGCAAAGUGGCUGUGGCUAUACUGCC | 0.05 |
| UGCAGAGCUCAAAACAGCGUGGCAAAGUGGCUGUGGCGAGAUUGCC | 0.04 |
| UGCAGAGCUCAACACAGCGUGGCAAAGUGGCUGUGGAUAAACUGCC | 0.08 |
| UGCAGAGCUCAACACAGCGUGGGGAAGUGGCUGUGGCUAGACUGCC | 0.35 |
| UGCAGAGCUCAAAAAAGCGUGGCAAAGUGGCUGUCGCUAGACUGCC | 0.27 |
| UGCAGAGCUCAACACAGAGUGGCAAAGUGGCUAUGGCUUGACUGCC | 0 |
| UACAAAGCGCCCCACAGCGUGGCAAAGUGGCUGUGGCUACAUUACC | 0.01 |
| UGCAGAGCUCAACAGAGCGUGGCAAAGUGGCUGUGGCUAGACUGCA | 0.14 |
| UGCAGAGCUCAACAGAGCGCGGCAAAGUAGCUGUGGCUAGACUACC | 0.01 |
| UACAGAGCUCAACACUGCGUGGCAAAGUGGCUGUGGCUGGACUGCC | 0.03 |

| Variant | self-cleavage |
| --- | --- |
| UGCAGAGCUCAACAUAGCGUGGCAAAGUGGCUGUGGCUAGACUGAC | 0.09 |
| UGCAGAGCUCAAGACAGCGUGGCAAAGUGGCUGCGGCUAGACUGCC | 0.04 |
| UGCAGAGCUCAAAACAGCGUGGCAAAAUUGCUCUGGCUAGACUGUC | 0.02 |
| UGCAGAGCUCAAUACAGCGUGGCAAAGUGGGUGUGGCUAGAAUGCC | 0 |
| UGCAGAGCUCAACAAAGCGUGGCAAAGUGGCUGUGGCUAGACUGCU | 0.07 |
| UGCAGAGCUCAACACAGCGUGGAAAAUUGACUGUGGUUAAACUGCC | 0.13 |
| UGCAGAGCUCAACACAGCGUGGUAAAGUGUCUGGGGCUAGACUGCC | 0.01 |
| UGCAGAGCUCAAUACAGCGUGGCAAAGUGGCUGUGGCUUGACUGCC | 0.39 |
| UGCAGAGCUCAACACAGCGUGGAAAAGUGGCUGUGGAUAGACUGCC | 0.01 |
| UGCAGAGCUCAACACAGAGUGGCAACGUGGCUAUGGCUAGACUGCC | 0 |
| UGCAGAGCUCAACAUAGCGUGGCAAAGAGGCUGUGGCUAGACUGCC | 0.05 |
| UGCAGAGCUUAACACAGCGUGGCAAAGUGACUGUGGCUAGACUGCC | 0.15 |
| UACAGACCUCAACACAGCGUAGCAAAGUGGCUGUCGCUAGACUACC | 0.04 |
| UGCAGAGCUCAAAACAGCGUGGCAAAGUGGCUGUGGCUAGCCUUCC | 0.01 |
| UACAGAGCUCAACACACCGUGGCAAAGUGACUGUGGCUAGACUUCA | 0.04 |
| UGCAGAGCUCAACAUAGCGCGGCAGAUUAGCUUUGUCUAGACCGCC | 0.02 |
| UGCAGAGCUCAACAAAGCGAGGCGAGGUGGCUGUGGCUAGACUGCC | 0.13 |
| UGCAGAGCUCAACACAGUGUUGCACAGUGGCUGUGGCUAGACAGCC | 0.01 |
| UGCAGAGCUCAACAUAGCGUGGUAAAGUGGCUGUGGCUAGACUGCC | 2.01 |
| UACAGCGUUCAACACAGCGUGGUAAAGUGGCUCUGGCUAGACUGCC | 0.37 |
| UGCAGAGCUCAACACAGCGUGGAAACGUGGCUGUUGCUUGACUGCC | 0.03 |
| UGCAGAGCUCAACACAGGGUGGCAAAGUCGCUGUGGCUAGACUGCC | 0.03 |
| UGCAGAGCUCAACAACGCGUGGCAAAGUGGCUGUGGCUGGACUGCC | 0 |

| Variant | self-cleavage |
| --- | --- |
| UGCAGAGCUUAACACAGCGAGGAAAAGUGGCUGUGGCUAGACUGCC | 0.08 |
| UGCAGAGCUCAACACAGUGUGGCACAGUGGCUGUGGCUAGACUGCC | 0.09 |
| UGCAGAGCUCAACACAGCGUGGAUAAGUGGCUGUGGCUAGACUGCC | 0.2 |
| UGCAGAGCUCAACACAGCGUGGAAAAGUUGCUGUGGCUAGACUCCC | 0.18 |
| UGCAGAGCUCAAUACAGCUGGGCAAAGUGGCUGUGGCUAGACUGUC | 0.05 |
| UGCAGAGCUCAAAACAGCGUUGCAAAGUGUCUGUGGCUAGACUGCC | 0.02 |
| UGCAGAGCUCAAUACAGCGUGGCACAGUGGCUGUGGCUAGACUGCC | 0.02 |
| UGCAGAGCUUAACACAGCGUGGCAAAGUGGCUGUGGCUAGACUACC | 0.11 |
| UGCAGAGCUCAAUAGACCUUGGUAAAGUGGCUGUUGCUAGACUGCC | 0.01 |
| UGCAGAGCUCAACAAAGCGUGGCAUAGUGGCUGUGGCUAGACUGCC | 0.04 |
| UGCAGAGCUCAACACAGCGUGGCAAAGUGGCUGUGGUUUGACUGCC | 0.01 |
| UGCAGAGCUCAACAAAGCGUGGCAAAGUGGCUGUUGCUAGACUGCC | 0.04 |
| UGCAGAGCUCAACACAGCGUGGCAAAGUGGCUGUGGGUCUACUGCC | 0.01 |
| UGCAGAGCUCAACAAAGCGUGGCAAAGUGGGUGUGGCUAGGCAGCC | 0.1 |
| UGCAGAGCUCAACACAGCGUGGCAAAGUGGCUGUGGUAAGACUGCC | 0.25 |
| UGCAGAGCUCAACACAGGGUGGCAAAGUGGCUGUGACUAGACCGCC | 0.05 |
| UGCAGAGCUCAAUACAGCGUAGCAAAGUGGCGGUGGCUAGACUGCC | 0.04 |
| UGCAGAGCUCAACAAGGCGAGGCAAAGUGGCUGUGGCUAGACUGCC | 0.03 |
| UGCAGAGCUCAACACAGCGUGGCAAAGUGGCUGUGGCUAGAGUCCC | 0.02 |
| UGCAGAGCUCAAUACAGCGUGGCAAAGUGGCUGUUGCUAGACUGAC | 0.02 |
| UGCAGAGCUCAACAAAGCGUGGCAAAGUGGCUGUGUCUUGCCUGCC | 0.06 |
| UGCAGAGCUCAACACAGAGUGGCAAAGUGGCAGUGGCUAGACUGCC | 0.08 |
| UGCAGAGCUCAAAACAGCGUGGCAGAGUGGCUGUGGCUAGACUGCU | 0.02 |

| Variant | self-cleavage |
| --- | --- |
| UGCAGAGCUCAACAUAAGGUGGCAAAGUGGCUGUGGUUAGAGUGCC | 0.02 |
| UACAGAGCUCAACACAGCGUGGCAACGUGGAUGUGGCUAGACUGCC | 0.06 |
| UGCAGAGCUCAACACAGGGUUGCUAAGUGGCUGUGGCUAGACUGCC | 0.47 |
| UGCAGAGCUCAACACAGCGUGGUAAAGUGGCUGUGGCUAGCCUGCC | 0 |
| UGCAGAGCUCAACACAGCGUGGGAAAGUGGCUGUCGCUAGACUGCC | 0.11 |
| UGCAGAGCUCAAAACAGCGUGACAAAGUGGCUGUGGAUAGACUAUC | 0.08 |
| UACAGAACUCAACAAAGCGUGGUGAAGUGGCUGUGGCUAGACUGCC | 0.09 |
| UGCAGAGCUCAAGACAGCGUGGCAAAGUGGCUGUGGCUGGACUGCC | 0.21 |
| UGCAGAGCUUAACACAGCGUGGCAAAGUGGCUGUGGCUAGACUGCA | 0.23 |
| UGCAGAGCUCAACAUAGCGUGGCAAAGUUGCUGUGGCUAGACUGCC | 0.5 |
| UGCAGAGCUCAACACAGCGUGGCAAAGUGGCUGUGGCUAGAUGGCC | 0.1 |
| UACAGAGCUCAACACAGCGUAGCAUAGUGUCUGUUGCUAGACUUCC | 0.12 |
| UGCAGAGCUCAACACAGUGUGUCAAAGUGGCGGUAGCUCGACUGCA | 0.02 |
| UGCAGAGCUCAACAUAGCGUGGCAAAGUGGCUGUGACUAGACUGCC | 0.13 |
| UACAGAGCUUAACACAGCGUGGGACAGUGACAGUGGCUAGACUGCC | 0.02 |
| UGCAGAGCUUAACACAGCGUGGUAAAGUGGCUGUUGCUAGACUGCC | 0.03 |
| UACAGAGCUCAACACAGCGUGGAUAAGUGGCUGUGUCUAGGCUGCC | 0.01 |
| UGCAGAGCUCAACAAAGCGUGGCAAAGUGGCUGUGGCUAGACUUCC | 0.12 |
| UGCAGAGCUCAACACAGGGUGGCAAAGUAGCUGUGGGUAGACUGCC | 0.01 |
| UGCAGAGCUCAACACAGCGUGGUAAAGUGGCUGUGGCUAUACUGCC | 0.09 |

From the RNAGym collection of RNA variant scans (doi:10.7554/elife.90254)
